# Source: PubChem BioAssay AID485281 (National Center for Advancing Translational Sciences (NCATS), 2010)
# Screen size: about 350,000 compounds; about 260 (0.074%) were called active. The shares of active, inactive and inconclusive entries below differ from those in the screen. The call rests on the fitted dose curve; in most records, active means well fitted inhibition curve with a large enough effect; inconclusive means small, poorly fitted or top-dose-only effect; inactive means no such curve, though single readings can be large or run the other way. Potencies of inconclusive entries are doubtful fits and often do not repeat.
# Target: Ferritin light chain (Equus caballus) (UniProt P02791)
# Chain of UniProt P02791 (P02791 whole entry, looked up): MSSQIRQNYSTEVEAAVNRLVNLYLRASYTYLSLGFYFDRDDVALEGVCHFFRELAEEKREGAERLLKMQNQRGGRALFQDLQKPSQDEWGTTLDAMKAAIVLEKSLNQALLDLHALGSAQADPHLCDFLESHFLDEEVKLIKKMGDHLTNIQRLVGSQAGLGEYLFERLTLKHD
# Assay: qHTS Assay for Identification of Novel General Anesthetics; further: nearly all actives have a fitted effect of over 20% in size
# Conditions: apoferritin/1-aminoanthracene competitive binding, fluorescence; series mostly up to 77.5 µM
# Outline: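 Probe: 1-aminoanthracene (50% saturated, PBS). Protein: horse-spleen apoferritin, 10 uM. Incubation: 10 min, room temperature. Detection: 380 nm excitation, 535 nm emission. Analysis: normalized response, four-parameter Hill.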
# Potency means the concentration at half of the fitted maximal effect; tags describe the fitted curve by direction and shape.
row,Structure (SMILES),Potency
1,O=C(N/N=C/c1ccc([N+](=O)[O-])o1)c1cn2ccc3ccccc3c2n1,inactive
2,CC(C)N(Cc1nc(-c2ccccc2)no1)C(=O)CN(C)S(=O)(=O)c1ccccc1,inactive
3,CCOc1ccc(NC(=O)c2ncn(-c3ccccc3)n2)cc1,"inconclusive: 15.8 µM [inhibitor, partial curve]"
4,O=c1[nH]c2ccc(Cl)cc2c(-c2ccccc2)c1SC(=S)N1CCCCC1,"inconclusive: 7.08 µM [inhibitor, full curve, poor fit]"
5,Cc1ccc(OCCSc2nc3ccccc3n2CC(=O)NC(C)C)cc1,inactive
6,COc1ccc2nc3c(cc2c1)Cc1ccccc1-3,"inconclusive: 44.7 µM [inhibitor, single point]"
7,COc1ccccc1CNC(=O)C12CC3CC(CC(C3)C1)C2,"inconclusive: 3.55 µM [inhibitor, full curve]"
8,Cc1cc(C)c2nc(C(F)(F)F)nc(N3CCN(C(=O)c4ccco4)CC3)c2c1,"inconclusive: 5.62 µM [inhibitor, single point]"
9,CC1C=CCC2C(=O)N(c3ccc(OC(=O)c4cccs4)cc3)C(=O)C12 (stereo not drawn),"inconclusive: 7.08 µM [inhibitor, partial curve]"
10,CC1CCCN(C(=O)c2ccc3c(c2NCCO)C(=O)c2ccccc2C3=O)C1 (stereo not drawn),"inconclusive: 12.6 µM [inhibitor, partial curve]"
11,Cc1occc1C(=O)N/N=C/C1=C(N2CCOCC2)C(=C\c2ccc(Cl)cc2Cl)/CC1,inactive
12,CC1=C(C(=O)Nc2ccccc2)C(c2ccco2)C(C#N)=C(SCC(=O)OC(C)C)N1 (stereo not drawn),"inconclusive: 22.4 µM [inhibitor, partial curve]"
13,COc1cccc(C(=O)Nc2ccc(NC(=O)C3CCCCC3)nc2)c1,"inconclusive: 31.6 µM [inhibitor, single point]"
14,COc1cccc(/C=C/C(=O)c2ccc(NS(=O)(=O)c3ccc(C)cc3)cc2)c1,"inconclusive: 17.8 µM [inhibitor, partial curve]"
15,Cc1cc2c(cc1C)C(c1ccsc1)CC(=O)N2 (stereo not drawn),"inconclusive: 31.6 µM [inhibitor, partial curve]"
16,Cc1ccc(NC(=O)O/N=C/c2ccc(Br)cc2)cc1,"inconclusive: 50.1 µM [inhibitor, single point]"
17,COc1ccc(C(=O)NC2CC(C)(C)Cc3c2cnn3-c2ccccc2)cc1OC (stereo not drawn),"inconclusive: 20 µM [inhibitor, partial curve]"
18,CC(C)Cc1ccc(CN2CCC(n3nccc3NC(=O)C3CCCC3)CC2)cc1,"inconclusive: 31.6 µM [inhibitor, partial curve]"
